# Article PMC9911399, “Two distinct binding modes provide the RNA-binding protein RbFox with extraordinary sequence specificity”
# Residue numbers refer to the chain shown, from its start. The list shows a part of the results.
# T1: RBFOX1 RRM (Homo sapiens, UniProt Q9NWB1 109-208)
# T1 sequence: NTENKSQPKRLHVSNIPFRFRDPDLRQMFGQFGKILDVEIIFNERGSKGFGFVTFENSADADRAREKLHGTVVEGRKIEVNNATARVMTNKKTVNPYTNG
# B1: GACGGAC (DNA:RNA)
# RNA: GGGAGACCGGAAUUCAGAUUGUCCGACGGACUUAAAUCCCGUCGUAGCCACCA
# DNA 1: CAATCTGAATTCCGGTCTCCC
# DNA 2: TGGTGGCTACGACGGGATT
# B2: AUACCUU (DNA:RNA)
# RNA: GGGAGACCGGAAUUCAGAUUGUCCAUACCUUUUAAAUCCCGUCGUAGCCACCA
# DNA 1: CAATCTGAATTCCGGTCTCCC
# DNA 2: TGGTGGCTACGACGGGATT
# B3: UCUCCAC (DNA:RNA)
# RNA: B2 RNA with A25U, U26C, A27U, U30A, U31C
# DNA 1: CAATCTGAATTCCGGTCTCCC
# DNA 2: TGGTGGCTACGACGGGATT
# B4: GAGAAGC (DNA:RNA)
# RNA: B1 RNA with C27G, G28A, G29A, A30G
# DNA 1: CAATCTGAATTCCGGTCTCCC
# DNA 2: TGGTGGCTACGACGGGATT
# B5: UAGAUGG (DNA:RNA)
# RNA: B1 RNA with G25U, C27G, G28A, G29U, A30G, C31G
# DNA 1: CAATCTGAATTCCGGTCTCCC
# DNA 2: TGGTGGCTACGACGGGATT
# B6: GCUGUAA (DNA:RNA)
# RNA: B1 RNA with A26C, C27U, G29U, C31A
# DNA 1: CAATCTGAATTCCGGTCTCCC
# DNA 2: TGGTGGCTACGACGGGATT
# B7: GACUAUA (DNA:RNA)
# RNA: B1 RNA with G28U, G29A, A30U, C31A
# DNA 1: CAATCTGAATTCCGGTCTCCC
# DNA 2: TGGTGGCTACGACGGGATT
# B8: CAGCUAG (DNA:RNA)
# RNA: B1 RNA with G25C, C27G, G28C, G29U, C31G
# DNA 1: CAATCTGAATTCCGGTCTCCC
# DNA 2: TGGTGGCTACGACGGGATT
# B9: UGAUUGA (DNA:RNA)
# RNA: B2 RNA with A25U, U26G, C28U, C29U, U30G, U31A
# DNA 1: CAATCTGAATTCCGGTCTCCC
# DNA 2: TGGTGGCTACGACGGGATT
# B10: CUAACCA (DNA:RNA)
# RNA: B2 RNA with A25C, C28A, U30C, U31A
# DNA 1: CAATCTGAATTCCGGTCTCCC
# DNA 2: TGGTGGCTACGACGGGATT
# B11: GUCCGUG (DNA:RNA)
# RNA: B2 RNA with A25G, A27C, C29G, U31G
# DNA 1: CAATCTGAATTCCGGTCTCCC
# DNA 2: TGGTGGCTACGACGGGATT
# B12: UCGCGAG (DNA:RNA)
# RNA: B1 RNA with G25U, A26C, C27G, G28C, C31G
# DNA 1: CAATCTGAATTCCGGTCTCCC
# DNA 2: TGGTGGCTACGACGGGATT
# B13: UCUAGAC (DNA:RNA)
# RNA: B1 RNA with G25U, A26C, C27U, G28A
# DNA 1: CAATCTGAATTCCGGTCTCCC
# DNA 2: TGGTGGCTACGACGGGATT
# B14: AUAGGCA (DNA:RNA)
# RNA: B2 RNA with C28G, C29G, U30C, U31A
# DNA 1: CAATCTGAATTCCGGTCTCCC
# DNA 2: TGGTGGCTACGACGGGATT
# B15: CUCAAGG (DNA:RNA)
# RNA: B2 RNA with A25C, A27C, C28A, C29A, U30G, U31G
# DNA 1: CAATCTGAATTCCGGTCTCCC
# DNA 2: TGGTGGCTACGACGGGATT
# B16: CGGAGAC (DNA:RNA)
# RNA: B1 RNA with G25C, A26G, C27G, G28A
# DNA 1: CAATCTGAATTCCGGTCTCCC
# DNA 2: TGGTGGCTACGACGGGATT
# B17: CCUGCAC (DNA:RNA)
# RNA: B1 RNA with G25C, A26C, C27U, G29C
# DNA 1: CAATCTGAATTCCGGTCTCCC
# DNA 2: TGGTGGCTACGACGGGATT
# B18: UGCUACC (DNA:RNA)
# RNA: B1 RNA with G25U, A26G, G28U, G29A, A30C
# DNA 1: CAATCTGAATTCCGGTCTCCC
# DNA 2: TGGTGGCTACGACGGGATT
# B19: UAUCAGG (DNA:RNA)
# RNA: B2 RNA with A25U, U26A, A27U, C29A, U30G, U31G
# DNA 1: CAATCTGAATTCCGGTCTCCC
# DNA 2: TGGTGGCTACGACGGGATT
# B20: AUUCCUA (DNA:RNA)
# RNA: B2 RNA with A27U, U31A
# DNA 1: CAATCTGAATTCCGGTCTCCC
# DNA 2: TGGTGGCTACGACGGGATT
# B21: GGUCCGU (DNA:RNA)
# RNA: B2 RNA with A25G, U26G, A27U, U30G
# DNA 1: CAATCTGAATTCCGGTCTCCC
# DNA 2: TGGTGGCTACGACGGGATT
# B22: UAAUAGA (DNA:RNA)
# RNA: B2 RNA with A25U, U26A, C28U, C29A, U30G, U31A
# DNA 1: CAATCTGAATTCCGGTCTCCC
# DNA 2: TGGTGGCTACGACGGGATT
# B23: GGCAGUA (DNA:RNA)
# RNA: B1 RNA with A26G, G28A, A30U, C31A
# DNA 1: CAATCTGAATTCCGGTCTCCC
# DNA 2: TGGTGGCTACGACGGGATT
# B24: AGAGCGC (DNA:RNA)
# RNA: B2 RNA with U26G, C28G, U30G, U31C
# DNA 1: CAATCTGAATTCCGGTCTCCC
# DNA 2: TGGTGGCTACGACGGGATT
# B25: UAUUUUG (DNA:RNA)
# RNA: B2 RNA with A25U, U26A, A27U, C28U, C29U, U31G
# DNA 1: CAATCTGAATTCCGGTCTCCC
# DNA 2: TGGTGGCTACGACGGGATT
# B26: UACAUCA (DNA:RNA)
# RNA: B1 RNA with G25U, G28A, G29U, A30C, C31A
# DNA 1: CAATCTGAATTCCGGTCTCCC
# DNA 2: TGGTGGCTACGACGGGATT
# B27: CUAAAUA (DNA:RNA)
# RNA: B2 RNA with A25C, C28A, C29A, U31A
# DNA 1: CAATCTGAATTCCGGTCTCCC
# DNA 2: TGGTGGCTACGACGGGATT
# B28: AAUUAGC (DNA:RNA)
# RNA: B1 RNA with G25A, C27U, G28U, G29A, A30G
# DNA 1: CAATCTGAATTCCGGTCTCCC
# DNA 2: TGGTGGCTACGACGGGATT
# B29: CACAAAC (DNA:RNA)
# RNA: B1 RNA with G25C, G28A, G29A
# DNA 1: CAATCTGAATTCCGGTCTCCC
# DNA 2: TGGTGGCTACGACGGGATT
# B30: UUUGAAU (DNA:RNA)
# RNA: B2 RNA with A25U, A27U, C28G, C29A, U30A
# DNA 1: CAATCTGAATTCCGGTCTCCC
# DNA 2: TGGTGGCTACGACGGGATT
# B31: CACAGCA (DNA:RNA)
# RNA: B1 RNA with G25C, G28A, A30C, C31A
# DNA 1: CAATCTGAATTCCGGTCTCCC
# DNA 2: TGGTGGCTACGACGGGATT
# Target: T1, RBFOX1 RRM
# Test: EMSA; HiTS-Eq, 1 nM pool, 10 min; buffer printed only for the single-RNA assays: 10 mM Tris pH 7.5, 150 mM NaCl, 3.4 mM EDTA, 0.001% NP-40, 30 C
# Details: tags: His6 N-terminal (pET28a); label: 5' 32P
# Procedure, shortened: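 Purified RbFox RRM, wild type or mutant, was incubated for 10 min in 50 µL with 1 nM of a 5′-radiolabelled RNA pool carrying 7 randomized nucleotides, whose flanks were annealed to DNA oligonucleotides, over a series of increasing protein concentrations. Unbound RNA was resolved on 8% native PAGE, cut out, reverse-transcribed, barcoded by PCR and sequenced on an Illumina HiSeq 2500. Relative association constants were derived from changes in read counts for each RNA species versus the control reaction and normalised to the cognate motif.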
row,Binder,binding signal
1,B1,0.0104 KA relative to UGCAUGU
2,B2,0.00186 KA relative to UGCAUGU
3,B3,0.00432 KA relative to UGCAUGU
4,B4,0.0124 KA relative to UGCAUGU
5,B5,0.0119 KA relative to UGCAUGU
6,B6,0.0158 KA relative to UGCAUGU
7,B7,0.00405 KA relative to UGCAUGU
8,B8,0.0155 KA relative to UGCAUGU
9,B9,0.028 KA relative to UGCAUGU
10,B10,0.00108 KA relative to UGCAUGU
11,B11,0.0157 KA relative to UGCAUGU
12,B12,0.0131 KA relative to UGCAUGU
13,B13,0.00915 KA relative to UGCAUGU
14,B14,0.00818 KA relative to UGCAUGU
15,B15,0.00694 KA relative to UGCAUGU
16,B16,0.0171 KA relative to UGCAUGU

row,Binder,binding signal
1,B17,0.0156 KA relative to UGCAUGU
2,B18,0.0147 KA relative to UGCAUGU
3,B19,0.00689 KA relative to UGCAUGU
4,B20,0.000532 KA relative to UGCAUGU
5,B21,0.0125 KA relative to UGCAUGU
6,B22,0.0143 KA relative to UGCAUGU
7,B23,0.01 KA relative to UGCAUGU
8,B24,0.0172 KA relative to UGCAUGU
9,B25,0.0201 KA relative to UGCAUGU
10,B26,0.00409 KA relative to UGCAUGU
11,B27,0.00354 KA relative to UGCAUGU
12,B28,0.00552 KA relative to UGCAUGU
13,B29,0.00171 KA relative to UGCAUGU
14,B30,0.0137 KA relative to UGCAUGU
15,B31,0.00181 KA relative to UGCAUGU
